Laboratory results as given in publication PMC4336329 (PLoS ONE, 2015).
The whole screen tested about 310,000 compounds, of which about 2,200 (0.71%) showed an effect of 50% or more. The effect is printed as a negative number. This is one part of the list.

target: human ether-à-go-go-related gene (hERG) potassium channel (human, UniProt Q12809); assay: primary screen, population patch clamp on CHO cells stably expressing hERG
Sequence (Q12809 whole entry, looked up): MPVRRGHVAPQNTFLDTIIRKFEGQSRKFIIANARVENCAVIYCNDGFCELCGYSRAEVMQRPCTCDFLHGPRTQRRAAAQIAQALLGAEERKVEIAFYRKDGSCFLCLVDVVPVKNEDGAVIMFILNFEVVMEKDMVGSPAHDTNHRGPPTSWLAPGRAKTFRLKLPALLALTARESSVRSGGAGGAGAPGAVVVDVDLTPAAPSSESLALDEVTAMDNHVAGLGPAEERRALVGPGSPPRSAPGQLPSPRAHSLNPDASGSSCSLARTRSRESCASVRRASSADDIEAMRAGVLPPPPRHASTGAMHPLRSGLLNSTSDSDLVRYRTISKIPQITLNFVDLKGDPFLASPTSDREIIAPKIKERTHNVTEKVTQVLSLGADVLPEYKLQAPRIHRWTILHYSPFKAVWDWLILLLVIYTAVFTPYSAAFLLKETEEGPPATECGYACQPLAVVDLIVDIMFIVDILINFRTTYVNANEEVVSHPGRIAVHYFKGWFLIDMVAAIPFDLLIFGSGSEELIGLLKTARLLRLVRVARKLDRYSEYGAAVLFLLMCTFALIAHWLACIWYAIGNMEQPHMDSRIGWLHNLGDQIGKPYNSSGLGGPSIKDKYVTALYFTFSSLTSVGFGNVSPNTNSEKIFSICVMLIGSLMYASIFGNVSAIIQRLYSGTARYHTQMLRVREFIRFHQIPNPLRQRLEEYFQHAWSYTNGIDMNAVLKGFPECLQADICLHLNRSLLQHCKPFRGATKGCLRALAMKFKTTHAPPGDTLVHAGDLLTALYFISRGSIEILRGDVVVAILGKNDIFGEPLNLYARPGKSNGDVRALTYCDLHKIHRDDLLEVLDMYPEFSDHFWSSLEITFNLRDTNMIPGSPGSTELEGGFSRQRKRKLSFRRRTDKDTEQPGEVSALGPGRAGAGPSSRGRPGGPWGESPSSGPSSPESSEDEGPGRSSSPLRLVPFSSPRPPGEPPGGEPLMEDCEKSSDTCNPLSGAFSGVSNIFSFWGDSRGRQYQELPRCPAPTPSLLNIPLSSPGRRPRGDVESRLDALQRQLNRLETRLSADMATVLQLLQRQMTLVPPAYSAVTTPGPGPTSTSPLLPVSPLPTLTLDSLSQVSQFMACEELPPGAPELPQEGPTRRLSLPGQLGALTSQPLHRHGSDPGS

Row | SMILES | hERG current change (%, negative = inhibition) at 1uM [%]
1 | Cc1ccc(-c2cc(C(F)F)nc3sc4c(=O)[nH]cnc4c23)cc1 | 8.64
2 | CNc1nc(N)c([N+](=O)[O-])c(N2CCCCCC2)n1 | 20
3 | COc1ccc(NC(=O)CC23CC4CC(C2)CC(n2nnc(C)n2)(C4)C3)cc1 | 7.05
4 | CS(=O)(=O)N1CCCC(C(=O)NCc2cccs2)C1 (stereo not shown) | 1.1
5 | O=C(Cc1c(Cl)cccc1Cl)N/N=C/c1cccnc1 | 15.8
6 | C#Cc1ccc([C@H]2C=C(C(=O)N3CCN(Cc4ccc5c(c4)OCO5)CC3)O[C@@H](OCc3ccc(CO)cc3)C2)cc1 | -1.37
7 | CCCn1nc2cc(C(=O)NCCc3ccc(C)cc3)ccc2c1OCC | -6.88
8 | O=C(O)C(=O)Nc1ccc(NC(=O)C(c2ccccc2)c2ccccc2)cc1 | 14.2
9 | Oc1cccc(O)c1O | 13.6
10 | CC(=O)c1c(C)[nH]c(C(=O)OCC(=O)NCc2ccc3c(c2)OCO3)c1C | 13.9
11 | O=C(NCc1cccs1)c1cc(-c2ccccn2)nc2ccc(Br)cc12 | 14.9
12 | O=C1OC2(CCCCC2)OC(=O)C1=CNc1ccc2c(c1)OCO2 | 6.14
13 | Cc1nnnn1-c1ccc(CC(=O)O)cc1 | 6.17
14 | CNC(=O)c1[nH]cnc1C(=O)NCC(=O)OC(C)(C)C | 4.05
15 | O=C(CSc1ccccc1)NN1C(=O)c2ccccc2C1=O | 3.52
16 | COCCNC(=S)N1CCC(NC(=O)C23CC4CC(CC(C4)C2)C3)CC1 | 9.6
17 | COc1ccc(OC)c(C2C3=C(CCCC3=O)Nc3c2c(=O)n(C)c(=O)n3C)c1 (stereo not shown) | 2.41
18 | CCCCS(=O)CC(O)COCC (stereo not shown) | 15.6
19 | COc1ccc(-c2[nH]nc3c2C(c2ccccc2OC(=O)N2CCOCC2)C(C#N)=C(N)O3)cc1 (stereo not shown) | 6.34
20 | COc1ccc(CNC(=O)c2csc(Cc3ccccc3)n2)cc1 | 9
21 | CCCOc1ccccc1OCC(=O)Nc1ccc(S(=O)(=O)N2CCCCC2)cc1 | 10.9
22 | CCc1ccc(C(=O)NNC(=O)c2ccc(=O)n(C)n2)cc1 | 17
23 | C=C(C)CN(CC)C(=O)CN1C(=O)NC2(CCCc3ccccc32)C1=O (stereo not shown) | 9.87
24 | CC(Sc1nc(N)cc(=O)[nH]1)C(=O)Nc1nc2c(s1)CCCC2 (stereo not shown) | 6.44
25 | Cc1ccc(S(=O)(=O)CCC(=O)Nc2ccc3c(c2)OCO3)cc1 | -8.83
